The results in this text go back to PubChem BioAssay AID488969 (Vanderbilt High Throughput Screening Facility, 2010).

Whole data set: some 110,000 compounds, median “z-score” near -0.1, cut for the highest 2% near 2. This is one part of the list. Activity calls are given as the source filed them.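 How the source made its calls: active means z-score in the third read window above 3 or below -3; inactive means the rest.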

The target of the experiment is Metabotropic glutamate receptor 8 (Rattus norvegicus) (UniProt P70579). In words: mGluR8 Gi/Go-coupled signaling modulation – cell-based, rat, thallium flux, HTS, primary screen (AID 488969). Conditions: HEK293 rat mGluR8, GIRK (G protein-gated inwardly rectifying potassium channel) thallium flux, FluoZin2; at 10 µM; stronger effect = higher value; submaximal glutamate (EC20) added with thallium.
Sequence of UniProt P70579 (P70579 whole entry, looked up): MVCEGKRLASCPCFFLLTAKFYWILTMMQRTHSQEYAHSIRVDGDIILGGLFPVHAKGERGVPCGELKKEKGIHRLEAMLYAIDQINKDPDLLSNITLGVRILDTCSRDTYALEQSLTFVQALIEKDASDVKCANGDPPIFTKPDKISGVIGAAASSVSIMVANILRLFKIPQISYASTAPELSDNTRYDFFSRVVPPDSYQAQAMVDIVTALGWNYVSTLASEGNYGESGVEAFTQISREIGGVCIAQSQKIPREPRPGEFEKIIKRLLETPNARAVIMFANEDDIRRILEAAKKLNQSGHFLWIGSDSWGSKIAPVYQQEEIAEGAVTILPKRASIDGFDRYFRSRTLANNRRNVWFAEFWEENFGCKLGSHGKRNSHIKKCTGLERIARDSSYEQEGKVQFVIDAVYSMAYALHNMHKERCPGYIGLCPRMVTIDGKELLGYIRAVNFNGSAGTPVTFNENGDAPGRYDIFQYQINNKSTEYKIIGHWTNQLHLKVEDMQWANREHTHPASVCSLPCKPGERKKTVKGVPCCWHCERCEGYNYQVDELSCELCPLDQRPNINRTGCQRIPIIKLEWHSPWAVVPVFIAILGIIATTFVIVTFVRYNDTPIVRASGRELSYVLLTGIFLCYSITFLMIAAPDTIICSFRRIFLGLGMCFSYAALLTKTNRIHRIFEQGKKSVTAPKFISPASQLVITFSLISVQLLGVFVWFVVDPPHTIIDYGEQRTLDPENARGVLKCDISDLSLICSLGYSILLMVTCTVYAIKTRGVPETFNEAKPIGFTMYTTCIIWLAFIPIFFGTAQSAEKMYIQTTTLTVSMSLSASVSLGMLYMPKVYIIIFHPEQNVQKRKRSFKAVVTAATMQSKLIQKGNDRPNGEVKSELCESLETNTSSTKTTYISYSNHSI
Regarding `CS(=O)(=O)N(CCc1ccccc1)CC(=O)N1CCc2ccccc2C1`, the z-score amounted to 0.339. `Cc1ccc([N+](=O)[O-])cc1NC(=O)C1CCN(S(C)(=O)=O)CC1` returned a z-score of 0.00186. The same measure for `CCc1nnc2sc(-c3ccc(NC(=O)c4ccc5c(c4)OCCO5)cc3)nn12`: -0.64. As for `CC1CCCCN1C(=S)Nc1ccc(OC(F)F)cc1` (stereo unspecified), the z-score worked out at 1.36. For the molecule `Cc1ccc(NC(=O)CCc2nnc(SCC(=O)Nc3ccccc3C)n2C)cc1Cl`, the z-score was -0.13.

The molecule `CC1CCCCN1Cc1cnc(Cl)s1` (stereo unspecified) gave a z-score of 0.0386.

Take `Cc1nc(NC(=O)c2ccccc2)sc1-c1csc(Nc2ccc(Cl)cc2Cl)n1`: the z-score was -0.0303. The same measure for `N/C(=N\OC(=O)CSc1ccccc1)c1ccc([N+](=O)[O-])cc1`: -0.126; for `COc1cc(C(=O)Nc2nnc(CC(=O)N3CCOCC3)s2)cc(OC)c1OC`: -0.13; for `Cc1ccc(NC(=O)c2ccc(S(=O)(=O)N3CCCCC3)cc2)cc1`: -0.0782. Next, `CC(/C=N/NC(=O)c1cccc([N+](=O)[O-])c1)=C\c1ccccc1`: -0.192; `O=C(CCSc1nnc2ccc3ccccc3n12)Nc1ccc(F)cc1`: -0.726. Next, `CC(C)n1cnc2cc(NCc3ccccn3)ccc21`: -0.0842; `CCN(CC)c1ccc(/C=N/NC(=S)NCc2ccc(OC)cc2)cc1`: 0.0355; `COc1cc(NC(=S)NCc2cccnc2)cc(OC)c1`: 0.297. On to `COc1cc(C(=O)NCc2nnc(SCC(=O)N3CCc4ccccc43)o2)cc(OC)c1OC`, for which the z-score is -0.104. The same measure for `O=C(CN1C(=O)c2ccccc2S1(=O)=O)NCCSC1CCCCC1`: -0.364; for `Cc1cccc(NC(=O)C2CCCC2)c1`: 0.277. Next, `CCCC(=O)Nc1ccc(Cl)c(NC(=O)c2cccnc2)c1`: -0.639; `N=c1oc2ccc3ccccc3c2cc1-c1nnc2n1CCCCC2`: -0.238; `CO/N=C/C(C#N)c1ncc(C(F)(F)F)cc1Cl` (stereo unspecified): -0.37. On to `CCC1Oc2nc(SC)nnc2-c2ccccc2N1C(=O)c1ccccc1` (stereo unspecified), for which the z-score came out at 0.563.

`CC1(C)Cc2c(cnn2-c2ccccc2)-c2c1c1ccccc1n2CC(O)CBr` (stereo unspecified): the z-score was found to be 0.0106. Next, `O=C(Nc1ccc([N+](=O)[O-])cc1)c1cn(-c2ccccc2)nc1-c1cc2ccccc2o1`: -0.161; `COc1ccc(OCCn2cncn2)cc1`: 0.0157; `O=C(c1cccc(C(F)(F)F)c1)N1CCCCCC1`: -0.0358. Next, `C/C(=N/OC(=O)c1c(F)cccc1F)c1nccs1`: -0.107; `Cc1nn2c(CN(C(=O)COc3ccccc3)c3ccccc3)nnc2c2ccccc12`: -0.835. In turn, `Nc1[nH]c(N=NC(=O)c2ccc(Cl)cc2)c2ccccc12` returned a z-score of -0.18. The same measure for `CCn1cc(C(=O)N2CCCC2)c(=O)c2cc(S(=O)(=O)N(C)C)ccc21`: -0.0719; for `CCCCOc1ccc(CONS(=O)(=O)c2ccc(NC(C)=O)cc2)cc1Cl`: -0.176. Next, `C=CCc1cc(/C=C2/NC(=S)NC2=O)cc(OC)c1O`: 0.128.

The molecule `Cc1ccc2nc(Cl)c(/C=N/NC(=O)[C@H]3C[C@@H]3c3ccccc3)cc2c1` registered a z-score of -0.252. As to `COc1cccc(-n2c(SCC(=O)NCc3ccco3)nnc2-c2c[nH]c3ccccc23)c1`, the z-score is -0.561. The same measure for `Cc1ccc(NC(=O)NNC(=O)Cn2nc(-c3ccccc3)c(-c3ccccc3)c(C#N)c2=O)cc1`: -0.36; for `Cc1ccc(C(C)C)c(OCCn2c(=O)oc3ccccc32)c1`: 0.403; for `CCOC(=O)c1c2c(n(C)c1C)C(=O)C(=O)c1ccc(Br)cc1-2`: -1.44. In turn, `O=C(CSc1nnc(-c2c[nH]c3ccccc23)n1CC1CCCO1)Nc1ccc2c(c1)OCCO2` (stereo unspecified) showed a z-score of -0.233.

`CCc1nc(C)c(C#N)c2cc(OC)c(OC)cc12` had a z-score of 0.0661. Next, `COc1cccc(C(c2sc3nc(C)nn3c2O)N2CCC3(CC2)OCCO3)c1` (stereo unspecified): 0.291; `O=C(c1nc2ccccc2s1)N1CCSCC1`: 0.0723; `CC(C)(C)C(=O)Nc1nc(C2CCCN2S(=O)(=O)c2ccc(Cl)cc2)cs1` (stereo unspecified): -0.989. Next, `Cc1nn(Cc2ccccc2Cl)c(C)c1NC(=O)c1cc(-c2ccc(F)cc2)on1`: -0.355. Regarding `CC1CC2=C(CC1/C=N/NC(N)=S)C(C)(C)CCC2` (stereo unspecified), the z-score was active: 3.44.

For `Nc1nnc(N2CCCCC2)s1`, the z-score was -0.203. The molecule `Cc1c2cnn(CC(=O)N3CCN(c4ncccn4)CC3)c(=O)c2c(C)n1Cc1ccc(F)cc1` registered a z-score of -0.25. `O=C(Nc1ccc(N2CCOCC2)c(Cl)c1)c1cccc(F)c1`: the z-score was -0.302. Next, `Cc1nc2ncccn2c1-c1csc(Nc2ccccc2)n1`: -0.96; `CC(=O)Nc1ccc(S(=O)(=O)Nc2nc3ccccc3nc2N2CCCC2)cc1`: 0.894; `Cc1cc(NC(=O)CCC(=O)N(c2ccc(F)cc2)C2(C(=O)NC3CCCCC3)CCCC2)no1`: -0.858. `Clc1ccc2oc(-c3ccccc3)nc2c1` came in with a z-score of -0.242. Next, `CSc1nc(C)cc(NC(N)=O)n1`: -0.0464. Next, `Cc1cc(C)c2[nH]c(=O)c(C(c3nnnn3Cc3ccc4c(c3)OCO4)N3CCC(C)CC3)cc2c1` (stereo unspecified): -0.26.

`C=CCOC(=O)C1=C(C)NC(SCC(=O)Nc2nccs2)=C(C#N)C1c1cccs1` (stereo unspecified) returned a z-score of -0.336. In turn, `O=C(NCCC1=CCCCC1)C(=O)c1c[nH]c2ccccc12` came in with a z-score of -0.305. Consider `CCOC(=O)N1CCN(Cc2nc(N)nc(Nc3ccccc3C)n2)CC1`, for which the z-score is -0.106. Next, `Cc1ccc(C=Nc2ccccc2C(N)=O)cc1`: 0.0748; `CSCCC(NC(=O)c1ccc([N+](=O)[O-])cc1Cl)C(=O)OCC(=O)NCC(F)(F)F` (stereo unspecified): -0.211; `COc1cc(CNCc2ccc(SC)cc2)cc(OC)c1`: -0.731. Molecule `O=C(NCc1ccccc1)NC1(C(=O)N2CCN3CCCC3C2)CCCCC1` (stereo unspecified) came in with a z-score of 0.0888.

Turning to `Cc1ccc(-c2nnn(CC(=O)NCc3ccccc3)n2)c(-n2cnnn2)c1`, the z-score is -0.255.

Turning to `CCOC(=O)/C=C/C(=O)OCC(=O)NCc1ccccc1`, the z-score was found to be 0.0436. Turning to `COc1cc(OC)c(C2C(C#N)=C(N)OC3=C2C(=O)CC(C)(C)C3)cc1OC` (stereo unspecified), the z-score is 0.399.

Molecule `CS(=O)(=O)c1ccc(-c2nn[nH]n2)cc1` yielded a z-score of -0.0726. The same measure for `COC(=O)c1sc2ccccc2c1C(=O)OC`: 0.376; for `COC(=O)c1nc2ccc(C)cn2c1F`: -0.388. Next, `O=C(NCCO)/C(=C\c1cccc([N+](=O)[O-])c1)NC(=O)c1ccco1`: -0.0478; `COc1cc2c(cc1OC)C1(Nc3c-2c(-c2ccccc2)nn3-c2ccccc2)C(=O)Nc2ccccc21` (stereo unspecified): -0.363; `Cc1ccccc1-c1noc(C2CCCCC2)n1`: -0.218. Next, `O=C(NCCSc1c[nH]c2ccccc12)C1CC1`: -0.0941; `CCSCCOC(=O)C1=C(C)NC2=C(C(=O)CCC2)C1c1coc2ccccc2c1=O` (stereo unspecified): 0.842.
